Data as given in PubChem BioAssay AID1625 (Sanford-Burnham Center for Chemical Genomics, 2009).
This is one part of the list. The main result of the screen is listed elsewhere. These columns were measured beside it and carry no call. Compounds called inactive in the main read-out are mostly missing here.

Experiment: insulin promoter activators in MIN6 cells, imaging, high-content screening, mouse beta cells (AID 1625);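 also: total cells summed across four imaged fields per well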
Conditions: MIN6 insulin promoter-GFP reporter, measured here: cytotoxicity, nuclei count, at 5 µM

| SMILES | cell count [cells] |
| --- | --- |
| CS(=O)(=O)c1nc(-c2ccccc2)cc(C(F)(F)F)n1 | 304 |
| Clc1ccc(-n2cc(-c3ccc(Br)cc3)[n+]3c2CCCCC3)cc1 | 474 |
| COc1ccc2c(C)cc(SCC(=O)N(C)C3CCS(=O)(=O)C3)nc2c1 (configuration not stated) | 1160 |
| Cc1ccc(-c2nn(-c3ccccc3)c3[nH]c(=O)c(CNCc4ccccc4)cc23)cc1 | 423 |
| CC1CC(C)CN(S(=O)(=O)c2ccc(C(=O)NCCCn3ccnc3)cc2)C1 (configuration not stated) | 311 |
| COc1ccc(C(=O)Nc2ccc(S(=O)(=O)N3CCCCC3C)cc2)c(OC)c1OC (configuration not stated) | 477 |
| CC(C)(C)C1C/C(=C/c2ccccn2)C(=O)/C(=C/c2ccccn2)C1 (configuration not stated) | 470 |
| COc1cc([C@@H]2c3cc4c(cc3[C@@H](NC3CCN(Cc5ccccc5)CC3)[C@H]3COC(=O)[C@H]23)OCO4)cc(OC)c1O | 218 |
| CN1CC=C2C(C#N)=C(N)C(C#N)(C#N)[C@H](c3ccoc3)[C@H]2C1 | 640 |
| COc1ccc(-n2cc(-c3ccc(C)cc3)[n+]3c2SCC3)cc1 | 427 |
| CCN1/C(=C\c2ccc3cc(C)ccc3[n+]2CC)Sc2cc(C)c(C)cc21 | 238 |
| CCc1cc2c(CN3CCN(CCO)CC3)cc(=O)oc2cc1O | 959 |
| CC(Sc1ccc(Cl)cc1)C(=O)NCc1cccnc1 (configuration not stated) | 360 |
| CCCN1C(=O)/C(=C/C=C2\N(CC)c3ccccc3C2(C)C)SC1=S | 986 |
| COc1cc(OC)c(-c2c3cc(O)c(=O)cc-3oc3cc(O)c(O)cc23)cc1OC | 1510 |
| CCCN1C(=O)S/C(=C/c2ccc(N3CCOCC3)o2)C1=O | 1010 |
| CCCCn1c2c(c(=N)c3ccccc31)CCC2 | 448 |
| CC(C)Cn1c(N)c(C(=O)COC(=O)C2CCCCC2)c(=O)n(C)c1=O | 485 |
| COc1ccc(/C(O)=C/c2nc3ccc(C(=O)NCCc4cccc(C)c4)cc3[nH]c2=O)cc1OC | 1010 |
| COc1cccc(/C=N/NC(=O)CCn2cnc3ccccc32)c1 | 1120 |
| Cc1cc(SCCOc2ccccc2)nc(N)n1 | 1390 |
| Cc1cc(-c2cccs2)c2c(N)c(C(=O)c3ccc4c(c3)OCO4)sc2n1 | 1380 |
| Cc1cccc(NC(=O)/C=C/c2ccc([N+](=O)[O-])s2)c1 | 545 |
| COC(=O)c1sc2cc([N+](=O)[O-])cc(SCC(C)C)c2c1N | 386 |
| CCOc1ccc(C(=O)C(CCC(CN(C)C)C(=O)c2ccc(OCC)cc2)CN(C)C)cc1 (configuration not stated) | 460 |
| CN1C(=O)CC(N2CCN(Cc3ccc(Cl)cc3)CC2)C1=O (configuration not stated) | 750 |

| SMILES | cell count [cells] |
| --- | --- |
| CCCCC1(Cc2ccc([N+](=O)[O-])cc2)C(=O)N(c2ccccc2)N(c2ccccc2)C1=O | 433 |
| CCOc1cccc(/C=N/NC(=S)Nc2cc(S(=O)(=O)N3CCOCC3)ccc2N2CCOCC2)c1O | 458 |
| OC(c1cc(-c2ccc(C(F)(F)F)cc2)nc(C(F)(F)F)c1)C1CCCCN1 (configuration not stated) | 483 |
| CCOC(=O)c1cc(C(=O)NCc2ccc(Cl)cc2Cl)nn1C | 488 |
| O=C(CCS(=O)(=O)c1ccc(Br)cc1)Nc1cc(F)ccc1F | 284 |
| COc1ccc(N(C(=O)Cc2cccs2)C2C=CS(=O)(=O)C2)cc1 (configuration not stated) | 1310 |
| CCc1ccc2nc3sc(C(=O)N4CCc5ccccc54)c(N)c3cc2c1 | 1050 |
| Cc1nnc(N/N=C/c2cc([N+](=O)[O-])c(N3CCC(C)CC3)cc2N2CCC(C)CC2)n1N | 230 |
| COCCCNc1c2c3c(cccc3[nH]c1=O)C(=O)c1ccccc1-2 | 812 |
| Cc1nn(-c2c(Cl)cc(Cl)cc2Cl)c(=O)c2ccccc12 | 908 |
| COc1cc2c(cc1OC)-c1nncn1C(C)(C)C2 | 1430 |
| COc1ccc(CS(=O)/C(Cl)=C(/Cl)C(=O)Nc2ccc(OC)nc2)cc1 (configuration not stated) | 441 |
| CC(NC(=O)/C(C#N)=C1\N=C(NC(=O)c2cccs2)c2ccccc21)c1ccccc1 (configuration not stated) | 1300 |
| CN1/C(=C/C=C(C#N)C#N)C=Cc2ccccc21 | 1450 |
| O=c1c2ccccc2nc(N/N=C/c2c(O)ccc3ccccc23)n1O | 438 |
| COc1ccc(C(=O)C(CCC(CNC(C)(C)C)C(=O)c2ccc(OC)cc2)CNC(C)(C)C)cc1 (configuration not stated) | 445 |
| COc1ccc(CCNCc2csc3nc4ccccc4n23)cc1OC | 197 |
| Nc1c(C(=O)NC2CCCC2)sc2nc(-c3cccs3)ccc12 | 1260 |
| CN1/C(=C\C(=O)COC(=O)Cn2nnc(-c3ccccc3)n2)C(C)(C)c2ccccc21 | 363 |
| CCCCNC(=S)NC(=O)c1ccc(Cl)cc1Cl | 1380 |
| Cc1ccc(Cn2c(SCC(C)C)nc3c2c(=O)[nH]c(=O)n3C)cc1 | 497 |
| CC(O)CNc1nc2c(c(=O)n(C)c(=O)n2C)n1Cc1cccc(Br)c1 (configuration not stated) | 419 |
| CN(C)c1cc[n+](CC(=O)c2ccc(-c3ccccc3)cc2)cc1 | 470 |
| C=CCn1c(SCCOc2ccc(OC)cc2)nnc1C(C)NC(=O)Cc1ccc(OC)cc1 (configuration not stated) | 755 |
| O=[N+]([O-])c1ccc(Sc2cccc[n+]2[O-])c2nonc12 | 301 |
| CCC(C)(C)c1ccc(OCCCC[n+]2cccc(C)c2)c(C(C)(C)CC)c1 | 212 |

| SMILES | cell count [cells] |
| --- | --- |
| O=[N+]([O-])c1ccc(N(c2ccccc2)c2ccccc2)cc1 | 980 |
| Cc1ccccc1Oc1cc(-n2ncc(Cl)c(Cl)c2=O)ncn1 | 330 |
| CCN1CC=C2C(C1)C(c1ccc(Cl)s1)C(C#N)=C(N)C2(C#N)C#N (configuration not stated) | 1070 |
| CC(=O)c1c(C)[nH]c(-c2ccccc2)nc1=S | 1410 |
| CCCCCCCn1c2c(c(=N)c3c1CCC3)CCCC2 | 175 |
| CCOC(=O)CC1C(=O)NCCN1S(=O)(=O)c1ccc(Cl)cc1Cl (configuration not stated) | 1350 |
| CC1CCC(C(C)C)C(OC(=O)Cn2c(-c3ccccc3)[n+](C)c3ccccc32)C1 (configuration not stated) | 478 |
| COc1cccc(/C=N/NC(=O)c2oc3nc(-c4ccccc4)cc(-c4ccco4)c3c2N)c1 | 830 |
| CC(C)c1ccc(NC(=O)CSc2nc3c(c(=O)[nH]2)CCC3)cc1 | 432 |
| COc1ccc(OC)c(S(=O)(=O)N2CCCCC2C(=O)O)c1 (configuration not stated) | 455 |
| Cc1ccc(C(C)C)c(OCc2ccc(C(=O)N/N=C/c3cccc(O)c3O)cc2)c1 | 322 |
| CCN(CC)c1ccc2cc(S(=O)(=O)c3ccc(Cl)cc3)c(=O)oc2c1 | 1190 |
| CCOc1ccc(NC(=O)C2CCC(C)(C(=O)O)C2(C)C)cc1 (configuration not stated) | 906 |
| COC(=O)c1ccc2c(c1)C(C)(C)C(/C=C/c1ccc(OC)c(OC)c1OC)=[N+]2C | 310 |
| Cc1cc(C)n(-c2nc(N(c3ccccc3)c3ccccc3)nc(-n3nc(C)cc3C)n2)n1 | 457 |
| CCCn1c(C)cc(/C=C(\C#N)C(=O)OCC(=O)NC(=O)NC(C)(C)C)c1C | 484 |
| CCOc1ccc(-c2c(C#N)c(N)nc3sc(C(=O)c4ccccc4)c(N)c23)cc1 | 1020 |
| COc1cccc2sc(NNC(=O)C3=COCCO3)nc12 | 1250 |
| O=C(CCl)Nc1ccc(Sc2ccc(NC(=O)CCl)cc2)cc1 | 306 |
| O=C(Nc1cccc(-c2csc(Nc3cccc(C(F)(F)F)c3)n2)c1)c1cc([N+](=O)[O-])cc(C(F)(F)F)c1 | 434 |
| Cc1ccc(-n2c(-c3ccc(Br)cc3)c[n+]3c2CCc2ccc4cccnc4c2-3)cc1 | 98 |
| Cc1cccc(-c2ncc(CN3CCCC(CO)(Cc4ccccc4C)C3)cn2)c1 (configuration not stated) | 1480 |
| CN1CC=C2C(C#N)=C(N)C(C#N)(C#N)C(c3ccsc3)C2C1 (configuration not stated) | 1240 |
| O=C(OCn1ncc(Br)c(Br)c1=O)c1c(F)cccc1F | 319 |
| CN1/C(=C\C(=O)c2cncc(Br)c2)C(C)(C)c2ccccc21 | 395 |
| CC(C)(c1ccccc1)c1ccc(OCC(O)CNC2CCN(Cc3ccccc3)CC2)cc1 (configuration not stated) | 330 |

| SMILES | cell count [cells] |
| --- | --- |
| COc1ccc(/C=C(\C#N)C(=O)OCC(=O)Nc2c(C)cccc2C(C)C)cc1 | 1090 |
| CCCc1n[nH]c2c1C(=O)C(C(=O)OC)C(C)(C)C2 (configuration not stated) | 1240 |
| COc1ccc(N=c2scc(-c3ccc(S(=O)(=O)N4CCOCC4)cc3)n2CCCO)cc1 | 384 |
| CCS(=O)(=O)c1ccc2oc(SCC(=O)NC3CCCC(C)C3C)nc2c1 (configuration not stated) | 771 |
| Cc1ccc(NC2=C(Cl)C(=O)c3ccccc3C2=O)cc1 | 356 |
| CC1=CC(=O)C(C(C)C)=C/C1=N/OS(=O)(=O)c1ccccc1 | 230 |
| Cc1nc(C)c(C(=O)N/N=C/c2cc(Br)ccc2O)s1 | 348 |
| O=[N+]([O-])c1ccc(-c2ccc(/C=N/Nc3nc(NCc4ccccc4)nc(N4CCOCC4)n3)o2)cc1 | 549 |
| CC[N+](CC)(CC#Cc1ccccc1)CC#Cc1ccccc1 | 424 |
| Fc1ccc2[nH]c3c(N4CCN(Cc5ccc6c(c5)OCO6)CC4)ncnc3c2c1 | 301 |
| COc1ccc(C(=O)OCCCN(C)C)cc1OC | 431 |
| O=C(CCl)N1c2ccccc2OCC1c1ccccc1 (configuration not stated) | 394 |
| COc1ccc(S(=O)(=O)N2CCN(c3cc(-c4ccccc4)nc4ncnn34)CC2)cc1 | 330 |
| FC(F)Oc1ccc(-c2c[n+]3c(n2-c2ccccc2)CCCCC3)cc1 | 405 |
| O=C(CCl)Nc1cccc(-c2cnc3ccccc3n2)c1 | 416 |
| Cc1ccc(C)c(OCC(O)CN2CCC(CN3C(=O)c4cccc5cccc(c45)C3=O)CC2)c1 (configuration not stated) | 484 |
| Cc1ccc(S(=O)(=O)Nc2ccc3nc(N)sc3c2)cc1 | 326 |
| Cn1c2c(c(=O)n(C)c1=O)C(C(F)(F)F)(C(F)(F)F)N=C(c1ccc(Cl)cc1)N2 | 260 |
| CCCCOc1ccc(Br)cc1CSC(=N)N | 486 |
| Cc1cc(-n2c(C)cc(C(=O)CSc3ncnc4ccccc34)c2C)no1 | 391 |
| COc1ccc(-n2c(-c3ccc(Cl)cc3)c[n+]3c2CCc2ccccc2-3)cc1 | 356 |
| O=C(C1=NN(c2ccccc2)C2C(=O)N(c3cccc(Cl)c3)C(=O)C12)c1ccccc1 (configuration not stated) | 1550 |
| O=S(=O)(c1ccccc1)c1nc(-c2ccco2)oc1NCc1cccnc1 | 358 |
| COc1ccc(-c2cc3nc(C)cc(N4CC(C)CC(C)C4)n3n2)cc1 (configuration not stated) | 460 |
